Results published in the supplement of paper PMC3334620.
Whole data set: some 33,000 sequences, median “E-score (-0.5 to 0.5)” near -0.016, cut for the highest 2% near 0.32. This is one part of the list.

Target: T1, Stp1 (UniProt B3LFK1)
T1 sequence: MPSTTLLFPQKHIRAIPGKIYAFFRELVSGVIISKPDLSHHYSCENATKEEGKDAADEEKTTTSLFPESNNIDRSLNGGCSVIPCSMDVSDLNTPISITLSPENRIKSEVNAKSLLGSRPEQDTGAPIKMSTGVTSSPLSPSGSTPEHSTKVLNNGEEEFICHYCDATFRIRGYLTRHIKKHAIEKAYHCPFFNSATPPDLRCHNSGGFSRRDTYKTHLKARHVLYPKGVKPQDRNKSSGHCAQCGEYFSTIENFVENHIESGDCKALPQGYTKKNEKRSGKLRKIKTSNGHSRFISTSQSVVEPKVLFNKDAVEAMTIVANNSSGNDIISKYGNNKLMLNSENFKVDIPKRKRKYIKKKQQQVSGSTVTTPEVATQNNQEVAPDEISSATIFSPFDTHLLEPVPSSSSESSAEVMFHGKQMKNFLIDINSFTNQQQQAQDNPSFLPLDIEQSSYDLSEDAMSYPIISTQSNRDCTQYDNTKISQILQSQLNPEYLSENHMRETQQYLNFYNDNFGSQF
Assay: PBM E-score (8-mer binding enrichment) (E-score (-0.5 to 0.5)); higher = stronger / more preferred TF binding; most listed sequences are background and not binding sites
Settings: protein concentration: 200 nM; construct: GST-full length
Procedure: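 Universal 'all 10-mer' protein binding microarrays (Agilent AMADID 015681) probed with GST-tagged S. cerevisiae TFs (full-length or DBD) made by in vitro transcription/translation (PURExpress), about 100-200 nM. Bound TF was detected with fluorescent anti-GST. Each ungapped 8-mer (which stands for itself and its reverse complement) is scored by the PBM enrichment score (E-score), a modified Wilcoxon-Mann-Whitney statistic from -0.5 to +0.5, computed with the Universal PBM Analysis Suite. Scale: above 0.35 generally sequence-specific binding.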

Sequence | PBM E-score
ACCTATAA | -0.041
AACAGATA | 0.0536
CCCGCTAA | -0.216
TAAATCGA | 0.201
ACCAGGCC | -0.0465
CAGTGGGG | -0.239
GAGGAAAC | -0.155
GATGCCTA | 0.149
GCGGTGCC | 0.29
GACTTACA | -0.162
CACTAGTA | 0.00039
ATTAAGAG | 0.0434
ACCAGCCC | -0.233
AACCGTCC | -0.24
GGTGTATA | -0.171
AGTTTCGC | 0.0498
ACCTTAAC | 0.0546
GATGCCAC | 0.245
GACTTTCC | -0.198
AGACGATG | 0.101
GCTGGATA | -0.0328
ATCTGCAC | -0.214
CATGTAGA | -0.0229
AGCGCGGG | 0.098
CAACATTG | 0.0989

Sequence | PBM E-score
CCGAAGCA | -0.12
CGTGACAG | -0.00558
CACCACAC | 0.104
ATCCGACA | -0.145
CTGCCGCA | 0.347
CTATAATC | -0.0205
ACGCTGTA | 0.0495
CTTTAGAA | 0.163
ACGTAGGA | -0.0769
GACTAGCA | -0.106
AATCGAAT | 0.236
GCCCAGGA | -0.134
TAACTATA | -0.0179
GCGGCAGC | 0.334
AGAAGGCA | 0.162
CCGAGCAC | -0.158
CCATCGCG | 0.173
GCATTTAA | 0.235
GAAGTCCA | -0.179
ACGAAATG | -0.0265
AGCAGAGA | -0.0687
GGCGAAAA | 0.207
AGCGCCGC | 0.481
GTCGTCGA | -0.059
CACCCGAA | -0.0461

Sequence | PBM E-score
AATGCCGA | 0.303
CCTAACAC | 0.067
CGGCTTAG | 0.0549
ACTCCCTA | -0.244
ATTAGTCG | 0.151
CACATCAG | -0.131
GGGTAGTA | -0.169
AGTACGCC | 0.0806
ACGGTCTC | -0.041
TAGCGCAA | -0.0177
GCGTATTA | -0.0425
GTAGCGCA | -0.0641
CCGGCTAA | -0.056
AACGCACT | -0.0239
CTGGGACA | -0.133
AATTTGTG | 0.149
AAGGACAA | 0.118
GGCAAGCC | 0.00627
AAACTTCT | 0.0968
AACATAAA | 0.0488
GGGGACGA | -0.249
AGATTTAT | 0.218
AATTACAA | -0.00331
CCATACGG | 0.395
TTAGGCAA | -0.0119

Sequence | PBM E-score
ACAACACG | 0.147
CCGAGTGA | -0.0864
GACTCGCC | -0.0418
GATACTCA | -0.125
GATCTAAA | 0.0401
GGGAGCGA | -0.21
ATCACTCA | 0.104
ACTAGAGG | -0.17
AGACACGA | -0.124
TGACTGAA | -0.114
AACTAGAG | -0.0509
ATCTACCG | -0.0632
ACGGCTTA | 0.375
CGCACACC | 0.0466
CATCTGGG | -0.155
GCTTAGCC | -0.0807
ACAATCTA | -0.0175
GGGATGCA | -0.182
GCTTTTCC | -0.0701
CAACCTTC | -0.146
AGTAAGCA | 0.0206
GAGCATCA | 0.0573
TCTGATCA | -0.039
GAGGGCTA | -0.267
TCTCGCAA | -0.0228

Sequence | PBM E-score
AGCTCCTA | -0.218
CTATGCGC | 0.143
AATGGTAC | -0.0272
AAAAATAG | 0.146
GGTGCTGA | -0.195
AGCCGTCC | 0.308
ACATCCAC | -0.0198
AAAGTACA | 0.0729
GAGTGTTA | -0.0319
ACTTTGAT | 0.148
GGCATCCC | -0.0465
GGCTCAGA | 0.114
CGACGCGA | -0.126
AGGATGAT | -0.0991
ACCGGATG | -0.112
GGCACTAA | 0.392
CCGGGTCG | -0.302
CGGCAAGA | 0.236
ACGGTGCT | -0.0146
AGCCCCCT | -0.307
GTCGTAGA | -0.0493
CTTGTAGC | 0.054
ACGCGGAC | 0.0606
GCTGGTAC | -0.0636
CCACGCCA | 0.0283

Sequence | PBM E-score
CGGCGCGA | 0.477
ACCCGATA | -0.245
AGCCCACT | -0.203
CATCCAGA | -0.174
ACTAGCAA | -0.0401
CCACACAA | -0.00214
CGTGGTGA | -0.0722
ATCTTGCG | 0.153
ATCACTGG | 0.0741
CACGTTTC | -0.259
ATGCTCAA | -0.119
CTCTGCTA | -0.0669
CCGTGAGA | 0.00516
GGATGTCA | -0.045
ACGCAGTA | 0.0148
CATCATAG | -0.0514
ATAGCGGG | -0.0712
CCTACCAC | -0.128
CAGTCGCG | -0.187
GGACACAA | 0.122
GCATCTAA | 0.221
TCTAGCAA | 0.115
CGTCCTTC | -0.161
AGAAAGGC | 0.206
CGTATAGA | 0.152

Sequence | PBM E-score
CACGGAAC | 0.253
ACTTAGTC | -0.208
ATTCCGAA | 0.129
CCCTATCG | -0.196
ATGGGAAC | -0.132
AGCTTGTA | 0.0115
ACTTAGAC | 0.111
GCCCTACA | 0.0881
ATAAAGAT | 0.0858
GGAGAGAC | -0.259
TATAGTGA | 0.0183
CGCCCACC | 0.00958
TCGTAGCA | 0.119
GTGTTAAC | 0.094
ACTGTAAG | 0.144
ACTTAAAT | 0.0505
GACTACTA | -0.0239
GAGACATC | -0.133
CAAGCGTC | -0.0885
AGGCGGGA | -0.183
ATGGCTAC | -0.0246
CATGCGGG | 0.0548
CGCAATCA | 0.0332
CAGGTACG | -0.0382
AAGAAAAT | 0.164

Sequence | PBM E-score
CTATAAGC | -0.0357
CAGTGAAC | -0.0426
GAGACGCA | -0.0219
GTCCAATA | -0.155
GAAGGGCC | -0.0951
GCGCGGAA | 0.263
CAGGTGTA | -0.142
GCTGCGTA | -0.0797
ACACCGGA | -0.154
GCCTGCGC | 0.0437
GACGTAAA | 0.0685
GATAAGAC | -0.00155
ACTTTCAA | 0.0067
GTAACCAA | -0.00612
TATCGTCA | -0.0796
CGAAAATC | 0.159
AGCTACAT | -0.0335
ACGCGGCT | 0.446
ACTTCGTG | 0.00238
CCATTCTA | 0.113
AGTACCTG | -0.212
AGCCGACG | -0.0599
TCAAGCAA | 0.0229
CCGCGTGA | 0.313
CTTCGGGA | -0.0682

Sequence | PBM E-score
CCACTCCA | -0.0331
CATTGCCA | -0.0509
CGAGATCA | 0.0764
AGACCTCG | -0.157
CCCGTCCA | -0.00501
GATAAGTA | 0.0808
ATTCCAGG | -0.184
AACCCCAA | -0.0751
ACCTGTAC | -0.0987
GAATGGTC | -0.124
ACAATGGT | -0.255
CCATAGTC | -0.237
AAGCGATT | 0.00901
TACGGCAA | 0.449
AGGCTGTC | -0.113
CCAGGGTC | -0.279
CGAACGAC | -0.0857
CCTGACAA | -0.148
CCCGCATC | -0.152
